The campaign covered roughly 310,000 compounds. About 2,200 (0.71%) showed an effect of 50% or more. Effects have a minus sign here. This is one part of the list.
target: human ether-à-go-go-related gene (hERG) potassium channel (human, UniProt Q12809); experiment: primary screen, population patch clamp on CHO cells stably expressing hERG
Sequence (Q12809 whole entry, looked up): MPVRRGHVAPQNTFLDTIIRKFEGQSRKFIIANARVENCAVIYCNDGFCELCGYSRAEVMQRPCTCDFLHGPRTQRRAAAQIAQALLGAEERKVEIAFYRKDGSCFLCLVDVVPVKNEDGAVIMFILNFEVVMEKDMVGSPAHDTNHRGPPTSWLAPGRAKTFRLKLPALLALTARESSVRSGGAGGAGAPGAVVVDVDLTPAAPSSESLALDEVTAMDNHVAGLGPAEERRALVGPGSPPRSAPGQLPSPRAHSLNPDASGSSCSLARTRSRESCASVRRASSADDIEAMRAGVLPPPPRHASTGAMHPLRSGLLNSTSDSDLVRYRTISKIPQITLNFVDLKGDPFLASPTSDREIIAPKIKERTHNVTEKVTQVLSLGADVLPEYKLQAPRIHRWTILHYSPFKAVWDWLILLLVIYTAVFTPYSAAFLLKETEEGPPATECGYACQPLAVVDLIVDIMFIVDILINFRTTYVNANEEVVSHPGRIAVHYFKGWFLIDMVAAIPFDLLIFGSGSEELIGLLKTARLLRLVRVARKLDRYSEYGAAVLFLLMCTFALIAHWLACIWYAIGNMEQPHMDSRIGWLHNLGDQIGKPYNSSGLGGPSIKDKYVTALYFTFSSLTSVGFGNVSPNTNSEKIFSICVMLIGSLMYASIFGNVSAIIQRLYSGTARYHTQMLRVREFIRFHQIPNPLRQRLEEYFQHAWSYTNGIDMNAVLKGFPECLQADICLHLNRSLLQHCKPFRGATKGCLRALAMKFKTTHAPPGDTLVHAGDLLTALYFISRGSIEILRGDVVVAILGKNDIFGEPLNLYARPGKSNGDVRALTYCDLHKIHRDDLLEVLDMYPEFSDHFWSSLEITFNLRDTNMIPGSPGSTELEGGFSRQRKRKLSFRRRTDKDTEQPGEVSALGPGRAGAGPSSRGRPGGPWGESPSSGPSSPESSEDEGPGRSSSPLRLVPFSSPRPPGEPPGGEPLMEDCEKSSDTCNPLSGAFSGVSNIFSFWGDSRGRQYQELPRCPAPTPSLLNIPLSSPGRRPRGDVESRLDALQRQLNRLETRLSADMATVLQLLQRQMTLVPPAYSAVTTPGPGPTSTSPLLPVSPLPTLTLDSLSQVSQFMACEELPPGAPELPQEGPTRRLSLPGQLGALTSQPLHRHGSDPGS

Point of comparison: Cc1c(C(=O)N(C)CCOc2ccccc2)oc2c(Cl)cccc12, “hERG current change (%, negative = inhibition) at 1uM” value 1.25%. Against it:
- O=C(OCCc1cc2ccccc2c(=O)o1)c1cccs1 — higher, 13.3%
- COc1cccc(NC(=O)CCCn2c(=O)[nH]c3ccccc3c2=O)c1 — lower, -0.0771%
- Cc1ccc(SCc2nn(C)c(Cl)c2C=O)cc1 — lower, 0.227%
- CCNC(=S)N1CCC(c2nc3ccccc3s2)CC1 — lower, -0.895%
- O=C(Nc1nnc(-c2ccc3c(c2)OCCO3)o1)C1CCCCC1 — higher, 5.98%
- COc1ccc(NC(=O)c2cn(C)c(=O)c3cc(OC)c(OC)cc23)cc1OC — higher, 15.6%
- Cc1cc(C)nc(NS(=O)(=O)c2ccc(NC(=O)c3ccc(O)cc3O)cc2)n1 — higher, 14.4%
- COc1ccc(OC)c(NC(=O)COC(=O)c2c3c(nc4ccccc24)CCCC3)c1 — lower, -0.309%
- O=C(NCCS(=O)(=O)N1CCN(c2ccc(F)cc2)CC1)c1ccc(Br)o1 — lower, -24.1%
- Cc1n[nH]c(C)c1CCCOc1ccccc1 — higher, 13.9%
- c1ccc(C2Nc3ccccc3Oc3ccccc32)cc1 (centres unmarked) — higher, 13.4%
- O=C(Nc1ccc2c(c1)OCCO2)C1CCCN(S(=O)(=O)c2cccnc2)C1 (centres unmarked) — higher, 7.76%
- Cc1ccccc1-c1nc(CS(=O)(=O)CC(=O)NCCc2ccccc2)c(C)o1 — higher, 9.24%
- CCCOc1ccc(C2=CSC3=NCCN23)cc1[N+](=O)[O-] — lower, -68.4%
- c1csc(CNc2nc3ccccc3n2CCN2CCOCC2)c1 — lower, -9.4%
- CC1(C)CC2(CCO1)N1CC3(C)CN2CC(C)(C1)C3O (centres unmarked) — higher, 12.4%
- COc1ccc(N(C(=O)c2ccco2)C(C(=O)NC2CCCC2)c2ccccc2)cc1 (centres unmarked) — higher, 15%
- COCCCNC(=S)NNC(=O)c1cccnc1 — higher, 15.9%
- CN(C)c1ccc([N+](=O)[O-])cc1C(=O)O — higher, 5.32%
- O=C(c1cccc2ccccc12)C1CCCN(C(=O)C2CCOCC2)C1 (centres unmarked) — higher, 8.96%
- Cc1nn(C)c(C(=O)NNC(=S)Nc2ccc(Cl)cc2)c1[N+](=O)[O-] — higher, 4.76%
- CCc1nnc(NC(=O)C2CCCN2C(=O)Nc2ccccc2)s1 (centres unmarked) — higher, 14.1%
- Cc1ccc2c(c1)/C(=C/c1ccco1)C(=O)N2 — higher, 11.4%
- CCS(=O)(=O)N1CCN(c2ccc(C(=O)N3CCOCC3)cc2[N+](=O)[O-])CC1 — higher, 6.39%
- Cc1ccc(C(=O)NCCc2cccs2)cc1 — higher, 13.6%
- COc1ccc(S(=O)(=O)N2CCCC2C(=O)Nc2ccc(C(C)=O)cc2)cc1 (centres unmarked) — lower, -1.27%
- CCOc1cc(-c2nc(-c3ccccc3)c(-c3cc([N+](=O)[O-])ccc3C)[nH]2)ccc1O — lower, -0.583%
- COC(=O)c1cc(=O)nc2sc(-c3cccs3)nn12 — higher, 5.86%
- O=c1c(-c2ccc(Br)cc2)[n+]([O-])c2ccccc2n1OCc1ccccc1 — higher, 5.37%
- NS(=O)(=O)c1cccc(NC(=O)CSc2nnc(C3CC3)n2C2CC2)c1 — higher, 11%
- O=C(CCNC(=O)c1ccccc1)N=Nc1c(O)[nH]c2ccccc12 — higher, 13.6%
- CCN(CC)S(=O)(=O)c1cccc(S(=O)(=O)c2cccc(S(=O)(=O)N(CC)CC)c2)c1 — higher, 7.82%
- CCN1C(=O)NC(c2cccnc2)C(C(=O)OC)=C1C (centres unmarked) — higher, 2.97%
- Cc1noc(C)c1CS(=O)(=O)c1ccc([N+](=O)[O-])cc1 — lower, -1.88%
- Cc1ccc(SCC(=O)NCc2ccccc2C)cc1 — lower, 0.875%
- CN(C)CC/C=C1/c2ccccc2Sc2c(O)cc(Cl)cc21 — higher, 2.15%
- O=C1CC2(CCCCCC2)Oc2ccc(Cl)cc21 — higher, 12%
- O=C(CCOc1ccccc1)Nc1ccnn1C1CCN(Cc2ccc(F)cc2)CC1 — lower, -8.91%
- CCOC(=O)N/N=C/C(Cl)=C/c1ccccc1 — higher, 4.86%
- CCOC(=O)Cn1cnc2sc3c(c2c1=O)CCC3 — higher, 10.3%
- COc1ccc(S(=O)(=O)Nc2cc3c4c(c2)CCN4C(=O)CC3)cc1 — higher, 11.3%
- C[C@H]1CNC(=O)C(=O)N1C[C@H](Cc1ccc(O)cc1)NC(=O)CC12CC3CC(CC(C3)C1)C2 — higher, 12.8%
- Cc1ccccc1NC(NC(=O)OCCn1c([N+](=O)[O-])cnc1C)C(Cl)(Cl)Cl (centres unmarked) — higher, 7.21%
